Test results published in patent publication US4868203A, “Bacterial substance and pharmaceutical composition thereof” (Kabushikikaisha Ueno Seiyaku Oyo Kenkyujo, priority 1986, dated 1989).
Converted amounts (≈) assume the structure as drawn.

Test system: Xandomonas campestris PV citri U-2
Assay type: cell-based
Settings: Xandomonas campestris PV citri U-2 (citrus canker)

## CC=CC=CC=CC(=O)NC(CC(=O)NC(C(=O)C1C(=O)NC(=O)C1C)C(C)C)c1ccccc1 (stereo not shown) [UFC-N11]
  MIC: 0.2 µg/mL (≈ 0.417 µM)
